Experimental data from the supplement of paper PMC12217912.
Some of the results follow. Sequences were assembled here from the parent chain. Inactive controls read about 0.05.

B1: TEV protease; numbered along this chain (parent)
chain: MGESLFKGPRDYNPISSSICHLTNESDGHTTSLYGIGFGPFIITNKHLFRRNNGTLVVQSLHGVFKVKDTTTLQQHLVDGRDMIIIRMPKDFPPFPQKLKFREPQREERICLVTTNFQTKSMSSMVSDTSCTFPSGDGIFWKHWIQTKDGQCGSPLVSTRDGFIVGIHSASNFTNTNNYFTSVPKNFMELLTNQEAQQWVSGWRLNADSVLWGGHKVFMVKPEEPFQPVKEATQL

Variants of: B1
Assay: raw area under fraction-flipped curve 0-4 h after induction (AUC4h, not background-subtracted), DNA-recorder readout of cleavage of the substrate (dimensionless); higher = more cleavage of the substrate by the protease variant
Details: temperature: 34 °C; time window: 0-4 h after rhamnose induction
Procedure: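 In vivo DNA recorder in E. coli TOP10(DE3) ΔrhaA at 34 °C. Each TEVp single-site mutant (parent TEVp 0) is paired with a single-site variant of the 7-mer TEVs (canonical ENLYFQ|S). The substrate sits between flexible linkers in a Bxb1-sfGFP-TEVs-SsrA fusion, so cleavage stabilises Bxb1 and speeds flipping of a recombination array, read by NGS. The value is the raw area under the fraction-flipped curve over 0-4 h after rhamnose induction (AUC4h), with ≥20 reads per time point. It is not background-subtracted; inactive controls average about 0.047.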
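Note: Bxb1 expression induced with 0.2% (w/v) L-rhamnose at OD600 near 0.5, cultures sampled hourly, flipped fraction per protease–substrate barcode pair counted by paired-end Illumina sequencing.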

Variant	area with substrate ENLYFQA	area with substrate ENLYFQC	area with substrate ENLYFQG	area with substrate ENLYFQI	area with substrate ENLYFQK	area with substrate ENLYFQL	area with substrate ENLYFQM	area with substrate ENLYFQN	area with substrate ENLYFQR	area with substrate ENLYFQS	area with substrate ENLYFQT	area with substrate ENLYFQV	area with substrate ENLYFQY	area with substrate ENLYFQD	area with substrate ENLYFQW	area with substrate ENLYFQP	area with substrate ENLYFQQ	area with substrate ENLYFQH	area with substrate ENLYFQE	area with substrate ENLYFQF
I84W	0.0466	0.0544	0.0613	0.0564	0.0617	0.057	0.0571	0.0539	0.0589	0.05	0.039	0.0486	0.0417							
D91H	0.102	0.0857	0.0613	0.0652	0.0662	0.0506	0.0661			0.103	0.0501	0.0618	0.0803	0.0624	0.0432					
D91P	0.0931	0.0979				0.0511	0.0942	0.065	0.066	0.113	0.082	0.0306	0.0961	0.0734						
F92H	0.117	0.109		0.0531	0.0605					0.104				0.0697						
P94G	0.148	0.112	0.124	0.0634	0.066	0.0623	0.0922	0.0862	0.061	0.117	0.0667	0.0591	0.0868		0.0818	0.0658	0.0867			
P94I	0.0567	0.106		0.0547	0.0616	0.06		0.0773	0.0593	0.0926	0.0652		0.0602				0.0274	0.0776		
K98I	0.0661	0.115	0.0968	0.0574		0.0576	0.0586	0.0763	0.0553	0.101	0.0395	0.0615	0.0751		0.067	0.0608	0.0617	0.0804	0.0709	0.0756
K100E	0.104		0.0887	0.0586	0.0565	0.0614	0.071	0.0852		0.107	0.0443	0.0673				0.0668	0.0721			
K100L	0.119	0.117			0.0651	0.0672	0.123	0.0713		0.102	0.0577		0.0605		0.0633	0.0648	0.0941			
K100R	0.0939		0.102			0.0507	0.0814	0.0801	0.0657	0.11	0.062		0.105		0.0694		0.0846		0.066	0.101
K100V	0.0947	0.106	0.0816	0.057		0.0454	0.0826	0.0736	0.0637	0.101	0.06	0.0633				0.0642		0.0539		
R102A	0.0646	0.0859	0.0626	0.0314	0.061	0.053	0.0637		0.0465	0.0641	0.0717	0.0506	0.0557	0.0456		0.0338	0.0589	0.055		0.0635
R102T	0.0545	0.0487	0.0478	0.0488	0.0547	0.0478	0.0629	0.088	0.0808	0.0594	0.0596	0.0434		0.0639					0.0549	
E103A	0.107	0.123	0.0995	0.0497	0.0679	0.0628		0.091	0.0621	0.11		0.0603	0.0776					0.0779		
E103C	0.123	0.13	0.102	0.0498	0.0599	0.0671	0.0822	0.0891	0.0728	0.112	0.0673				0.0692	0.0689		0.0781		
E103L	0.0866			0.0927		0.0819	0.0969	0.085	0.0839	0.102	0.0689	0.0601			0.0726	0.0669			0.0853	
Q105C	0.0786	0.117	0.0986	0.0594		0.0601		0.0718	0.0617	0.105	0.0582		0.0756			0.0657		0.1		
Q105M	0.0951	0.0963	0.111	0.0571	0.0696	0.0608	0.0937	0.137	0.0648	0.104	0.0675		0.0721	0.0843	0.0694	0.0618		0.078	0.0543	
E107A	0.0789	0.0817	0.122	0.0488	0.0664	0.0665	0.0861		0.0612	0.102	0.0687	0.0646		0.0444						
E107W	0.0832	0.0754				0.0626	0.0808			0.0951		0.0751		0.0644	0.0662					0.0782
E108T	0.0736	0.0626	0.0512	0.0533	0.0255	0.0479	0.0727	0.0593	0.0418	0.0724	0.0493	0.0438		0.0487	0.0603		0.0496	0.0674		0.0569
C111T	0.101	0.0896		0.0683				0.0792	0.0617	0.107	0.0638		0.0776	0.0732	0.0335	0.0601		0.0895	0.0642	0.101
C111Y	0.137	0.107	0.0628		0.0732		0.0991	0.0721	0.0575	0.106	0.0995	0.0666			0.0588	0.0693	0.0638	0.094	0.0569	0.0843
V113P	0.0844	0.077	0.0743	0.068		0.0509	0.0704	0.065	0.067	0.072		0.0516			0.0633		0.0655	0.0613		0.0636
T114F	0.109	0.119	0.0998	0.0568			0.0914	0.0762	0.0493	0.101	0.0741		0.0786	0.0766	0.0766		0.0726	0.0774	0.0874	
T115N	0.113	0.0518	0.0913	0.0555	0.0819	0.0458	0.0793		0.024	0.0898	0.0731		0.0786		0.0674				0.0632	
